The list shows a part of the results.
The compounds below were run on T1, C. trachomatis L2/434/Bu expressing GFP (CTL2-GFP). Details: total inclusion area; 28.5 h, 10 µM; inhibitor.
T1 construct: L2/434/Bu GFP intracellular growth in HeLa cells
Parameters: species or system HeLa; C. trachomatis total inclusion area by high-content imaging, normalised to DMSO
Procedure, shortened: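 High-content imaging followed the bulk GFP/resorufin measurement: fixed, Hoechst-stained cells were scored for GFP inclusions and host nuclei per well. Total inclusion area and count served as growth proxies, nuclei number as the viability proxy. MIC calculation matched the bulk assay.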

| SMILES | % of control remaining |
| --- | --- |
| Cc1noc(C)c1NC(=O)c1nc2ccccc2[nH]1 [CBK200315] | 111.527 |
| Cn1ccnc1CN1C(=O)CO[C@H]2CN(Cc3ccc4c(c3)OCO4)C[C@H]21 [CBK289665] | 125.694 |
| NC(=O)CSc1ccccc1 [CBK010649] | 57.9963 |
| COc1ccc(CCNC(=O)CSc2nc(N)c3c4c(sc3n2)CCCC4)cc1 [CBK095784] | 73.0226 |
| CCN(c1ccccc1)S(=O)(=O)c1ccc(C(=O)NC(C)c2ccc3c(c2)OCCO3)cc1 (stereo not shown) [CBK296945] | 91.1256 |
| O=C(Cc1ccccc1)N1C[C@@H]2CCCCN(CC3CC3)[C@@H]2C1 [CBK285497] | 104.615 |
| COc1ccccc1-c1coc2cc(OC(=O)c3c(C)oc4ccc(OC(C)=O)cc34)ccc2c1=O [CBK265191] | 98.1289 |
| COc1cccc(CNc2nccnc2-c2ccoc2)c1OC [CBK036782] | 152.376 |
| CCCS(=O)(=O)NC1CC(C)(C)Cc2c1cnn2-c1ccc(F)cc1 (stereo not shown) [CBK306770] | 74.0168 |
| O=C(O)CCc1nn2c3ccccc3nc2n(-c2ccccc2)c1=O [CBK267520] | 109.974 |
| O=C(CC1CC1)Nc1snnc1-c1ccc(Cl)cc1 [CBK153239] | 93.3256 |
| O=C(NCc1ccc(Cl)c(Cl)c1)N1CCN(Cc2ccccc2)CC1 [CBK155624] | 85.2378 |
| CC(C)NC(=O)c1ccc(Cl)cc1 [CBK015665] | 57.8628 |
| COc1ccc(-c2cc(C(=O)Nc3ccc(O)cc3)cnc2-c2ccc(F)cc2)cc1 [CBK038026] | 99.9106 |
| Cc1ccc(Cc2cnc(NC(=O)C3CCCO3)s2)cc1Cl (stereo not shown) [CBK305013] | 119.549 |
| Cc1ccc(CN2CCCC3(C/C=C/COc4ccccc4C(=O)NCCNC3=O)C2)cn1 (stereo not shown) [CBK292022] | 113.55 |
| CS(=O)(=O)c1ccc(-c2ccc(COC3CCN(C(=O)CCCc4ccc(F)cc4)CC3)cn2)cc1 [CBK162229T] | 102.367 |
| COc1ccc(C(NC(=O)c2cc(C)oc2CN2CCCC2)c2ccccc2)cc1 (stereo not shown) [CBK285573] | 76.423 |
| c1ccc(CNc2nc(-c3ccco3)cn3ccnc23)nc1 [CBK037482] | 66.6169 |
| C=C(C)Cn1c(SC(C)C)nnc1-c1ccccc1OC [CBK200072] | 90.1172 |
| COc1ccc(-c2cc(C(=O)OCc3ccccn3)c3ccccc3n2)cc1 [CBK296114] | 98.3014 |
| CN(Cc1ccccc1)c1nc2ccccn2c(=O)c1/C=C1/SC(=S)N(CCc2ccccc2)C1=O [CBK263839] | 81.5561 |
| O=S(=O)(c1cccc(C(F)(F)F)c1)n1ccc2c(CN3CCCC3)cccc21 [CBK116168T] | 78.0632 |
| CN(C)c1ncc(-c2ccc(F)cc2)c(C2CCCN2C(=O)c2nccc3ccccc23)n1 (stereo not shown) [CBK286086] | 116.912 |
| CC(=O)NC(c1ccccn1)C1CCN(C(=O)C2CCCCC2)CC1 (stereo not shown) [CBK285049] | 112.685 |
| Cc1cc2nc(NCC3CCCO3)c3ccccc3n2n1 (stereo not shown) [CBK305871] | 57.1731 |
| CCC(C)(C)N1CC(=O)N=C1NCCc1ccc(S(N)(=O)=O)cc1 [CBK007750] | 63.7257 |

| SMILES | % of control remaining |
| --- | --- |
| CC(C)(C)C(=O)N1CC[C@H]2NC(=O)N(c3ccc(F)cc3)C(=O)[C@H]21 [CBK289328] | 116.463 |
| Cc1ccccc1CCNC(=O)c1cccn(CC(=O)N(C)C2CCCCC2)c1=O [CBK286028] | 119.643 |
| Cc1cc2c(o1)c1cnn(CC(=O)N3CCCC3)c(=O)c1n2C [CBK284223] | 52.7685 |
| Cc1no[n+]([O-])c1COc1cccc(/C=C2\N=C(c3ccccc3)OC2=O)c1 [CBK263454] | 91.4307 |
| O=C(NCCCc1ccc(F)cc1)c1cccc(-n2cnnc2)c1 [CBK282713] | 113.704 |
| Cc1ccc(N2C(=O)c3[nH]nc(C)c3C2c2ccc(O)cc2)cc1 (stereo not shown) [CBK287915] | 47.3283 |
| CC(=O)Nc1ccc(NC(=O)c2cnc(-c3ccc(F)cc3)c(-c3ccco3)c2)cc1 [CBK037977] | 122.107 |
| O=C(CSc1ncccn1)Nc1cccc(Cl)c1 [CBK058217] | 95.4615 |
| CCOc1ccccc1-c1ccccc1NC(=O)c1nc2ccccc2n(C)c1=O [CBK285855] | 112.065 |
| COc1ccccc1-c1ncc(OCC(F)(F)F)nc1NC(=O)c1ccco1 [CBK145277] | 70.758 |
| N#Cc1ccsc1NC(=O)CN1CCC(CNc2ccccn2)C1 (stereo not shown) [CBK306117] | 40.9068 |
| Cc1noc(C)c1CC(=O)N1CCc2[nH]c3ccccc3c2C1 [CBK281848] | 110.447 |
| CCCc1c(C(=O)NCC(C)(C)CN(C)C)cnn1-c1cc(Cl)cc(Cl)c1 [CBK107381] | 95.3985 |
| O=C(/C=C/c1ccccc1)N/C(=C/c1ccccc1)C(=O)Nc1ccc2ccccc2c1 [CBK265023] | 88.8353 |
| CC(C)c1nc2c(n1C)CCN(Cc1cc(=O)n3ccccc3n1)C2 [CBK305061] | 79.4007 |
| O=C(NCc1ccc(-c2nc3ncccc3o2)cc1)c1ccc(F)cc1 [CBK270182] | 84.295 |
| NC(=O)CSc1nnc(NC(=O)c2ccccc2Cl)s1 [CBK287629] | 104.783 |
| CN(C)CCN1C(=O)C(O)=C(C(=O)c2ccc(S(=O)(=O)N3CCOCC3)cc2)C1c1ccc(Br)cc1 (stereo not shown) [CBK264693] | 96.1134 |
| Cc1ncc(CNC(=O)C2CC2)c(-c2cn(C)c3ccccc23)n1 [CBK283366] | 90.2099 |
| COc1cccc(Nc2cc(-c3ccc(CC(C)C)cc3)ncn2)c1 [CBK090745] | 156.397 |
| Cc1cc(S(=O)(=O)NCc2ccccc2)ccc1OCC(=O)N1CCN(C)CC1 [CBK268274] | 82.538 |
| O=C(Nc1ccc(N2CCCC2)c(F)c1)C1CC(=O)N(C2CC2)C1 (stereo not shown) [CBK281461] | 106.674 |
| O=C1C=C(O)CC(CCc2ccc(F)cc2)(CCc2ccc(F)cc2)O1 [CBK008148] | 110.134 |
| Cc1ccc(-c2ccccc2CC2(C(=O)Nc3ccc(C(N)=O)cc3)CCOCC2)c(C)c1 [CBK286422] | 104.047 |
| CCCn1nnn(-c2cc(OCCOCC)c(Cl)cc2Cl)c1=O [CBK026016] | 78.1339 |
| COc1cc(-c2nc3ncccc3cc2NC(=O)C(C)C)cc(OC)c1OC [CBK073661] | 94.2202 |
| O=S(=O)(c1ccc(N2CCNCC2)cc1)n1ccc2ccc(Br)cc21 [CBK034034C] | 8.541 |

| SMILES | % of control remaining |
| --- | --- |
| c1cncc(COc2cncc(N3CCCC3)n2)c1 [CBK115892] | 100.364 |
| CCN1CCN(C(=O)c2nccnc2C(=O)O)CC1 [CBK286718] | 77.0796 |
| Sc1nnc(-c2cccc(Br)c2)o1 [CBK288432] | 60.7368 |
| CN(C)CCCN(Cc1ccco1)Cc1c[nH]nc1-c1cccs1 [CBK283198] | 54.3826 |
| CC(=O)Nc1ccc(OC(=O)CSc2nc(C)cc(-c3ccccc3)n2)cc1 [CBK268754] | 116.464 |
| CN(CCC#N)S(=O)(=O)c1ccc(Cl)c(Cl)c1 [CBK045396] | 117.343 |
| Cn1c(=O)c2c(nc(CN3CCN(Cc4ccccc4)CC3)n2CCCc2ccccc2)n(C)c1=O [CBK269582] | 105.702 |
| Cc1ccc(S(=O)(=O)N(C)CC(=O)Nc2ncc(C(F)(F)F)cc2Cl)cc1 [CBK266729] | 116.608 |
| Cc1cc(C)n2nc(CC(=O)N3CCCC3c3ccccn3)nc2n1 (stereo not shown) [CBK304408] | 61.4334 |
| CC(C)(C)NCC(O)c1ccc(O)c2c1C1CCC2CC1 (stereo not shown) [CBK013269C] | 22.9747 |
| O=S(=O)(Cc1ccccc1)c1cc2c(N3CCNCC3)nccc2s1 [CBK200017C] | 87.1119 |
| CCOC(NC(=O)Nc1ccc(Br)cc1)(C(F)(F)F)C(F)(F)F [CBK027208] | 97.1795 |
| CCc1c(C)nc2c(NC(C)=O)cccc2c1SCCC(=O)O [CBK159594T] | 91.5267 |
| O=C1Nc2cc(C(F)(F)F)ccc2N2CCCC12 (stereo not shown) [CBK288125] | 88.1535 |
| O=C1CCCN1c1ccc(CN2CCC(O)(c3ccccc3)C2)cc1 (stereo not shown) [CBK282808] | 100.169 |
| CCN1CCC[C@@H]1CNC(=O)c1n[nH]c2c1CCC2 [CBK174628] | 38.1242 |
| O=C(CSc1nnc(-c2ccco2)n1Cc1ccco1)c1ccc(-c2ccccc2)cc1 [CBK267555] | 123.361 |
| O=C(NC1=NCCS1)c1cc2ccccc2o1 [CBK058927] | 64.8411 |
| CC1=CC(C)C(CNCCN2CCNCC2)C(C)C1 (stereo not shown) [CBK262832] | 78.9693 |
| COc1cccc(CNc2nccc(-n3nc(C)cc3C)n2)c1 [CBK288612] | 125.414 |
| COc1ccccc1-c1cn2ccnc2c(N(C)CCN(C)C)n1 [CBK066156] | 122.381 |
| O=C(Nc1ccc(F)cc1)c1[nH]c2ccccc2c1NS(=O)(=O)c1ccc(C(F)(F)F)cc1[N+](=O)[O-] [CBK050090] | 91.6734 |
| CCC(Oc1ccccc1)C(=O)Nc1ccccc1-c1ccccc1 (stereo not shown) [CBK266031] | 64.0747 |
| COc1ccccc1NC(=O)c1ccc(-c2nnc(-c3ccccc3)o2)cc1 [CBK266533] | 113.521 |
| O=C(CC(C(=O)O)n1cnc([N+](=O)[O-])n1)c1ccc(Br)cc1 (stereo not shown) [CBK267524] | 106.516 |
